# Data from the supplement of paper PMC8728848.
# Some of the results follow.
# B1: SGC, Q9M345 (protein)
# chain: QNLNFTYNGFHPPLTDISLQGLATVTPNGLLKLTNTSVQKTGHAFCTERIRFKDSQNGNVSSFSTTFVFAIHSQIPTLSGHGIAFVVAPTLGLPFALPSQYIGLFNISNNGNDTNHIFAVEFDTIQSSEFGDPNDNHVGIDLNGLRSANYSTAGYRDDHDKFQNLSLISRKRIQVWIDYDNRSHRIDVTVAPFDSDKPRKPLVSYVRDLSSILLEDMYVGFSSATGSVLSEHFLVGWSFRLNGEAPMLSLSKLPKLPRFEPRRIS
# Experiments:
# Test in all cases: glycan array binding signal (z-score within array); higher = stronger binding
# Conditions in all cases: glycan notation: IUPAC condensed, linker removed
# [1] = biological target: Neu5Ac(a2-3)Gal(b1-4)GlcNAc(b1-3)[Neu5Ac(a2-3)Gal(b1-4)GlcNAc(b1-6)]GalNAc
# Procedure, shortened: (§1)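 Glycan array binding is given as a within-array Z-score, which can be read as non-binding when negative. The arrays, 3228 of them, came from the Consortium for Functional Glycomics database and were retained only where the protein sequence was available. Z-scores were averaged across arrays of the same protein sequence at different concentrations or buffers and across linkers.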
# [2] = biological target: Neu5Ac(a2-3)Gal(b1-4)GlcNAc(b1-6)GalNAc
# Procedure, shortened: as §1
# [3] = biological target: Neu5Ac(a2-3)Gal(b1-4)GlcNAc(b1-6)[Gal(b1-3)]GalNAc
# Procedure, shortened: as §1
# [4] = biological target: Neu5Ac(a2-3)Gal(b1-4)GlcNAc(b1-6)[Neu5Ac(a2-3)Gal(b1-3)]GalNAc
# Procedure, shortened: as §1
# [5] = biological target: Neu5Ac(a2-3)Gal(b1-4)GlcNAc6S
# Procedure, shortened: as §1
# [6] = biological target: Neu5Ac(a2-3)Gal(b1-4)[Fuc(a1-3)]GlcNAc
# Procedure, shortened: as §1
# [7] = biological target: Neu5Ac(a2-3)Gal(b1-4)[Fuc(a1-3)]GlcNAc(b1-2)Man
# Procedure, shortened: as §1
# [8] = biological target: Neu5Ac(a2-3)Gal(b1-4)[Fuc(a1-3)]GlcNAc(b1-3)Gal
# Procedure, shortened: as §1
# [9] = biological target: Neu5Ac(a2-3)Gal(b1-4)[Fuc(a1-3)]GlcNAc(b1-3)Gal(b1-4)GlcNAc
# Procedure, shortened: as §1
# [10] = biological target: Neu5Ac(a2-3)Gal(b1-4)[Fuc(a1-3)]GlcNAc(b1-3)Gal(b1-4)[Fuc(a1-3)]GlcNAc(b1-3)Gal(b1-4)[Fuc(a1-3)]GlcNAc
# Procedure, shortened: as §1
# [11] = biological target: Neu5Ac(a2-3)Gal(b1-4)[Fuc(a1-3)]GlcNAc(b1-3)GalNAc
# Procedure, shortened: as §1
# [12] = biological target: Neu5Ac(a2-3)Gal(b1-4)[Fuc(a1-3)]GlcNAc(b1-6)[Gal(b1-3)]GalNAc
# Procedure, shortened: as §1
# [13] = biological target: Neu5Ac(a2-3)Gal(b1-4)[Fuc(a1-3)]GlcNAc(b1-6)[Neu5Ac(a2-3)Gal(b1-3)]GalNAc
# Procedure, shortened: as §1
# [14] = biological target: Neu5Ac(a2-3)Gal(b1-4)[Fuc(a1-3)]GlcNAc6S
# Procedure, shortened: as §1
# [15] = biological target: Neu5Ac(a2-3)Gal6S(b1-4)GlcNAc
# Procedure, shortened: as §1
# [16] = biological target: Neu5Ac(a2-3)Gal6S(b1-4)[Fuc(a1-3)]GlcNAc
# Procedure, shortened: as §1
# Neu5Ac(a2-3)GalNAc = biological target: Neu5Ac(a2-3)GalNAc
# Procedure, shortened: as §1
# [17] = biological target: Neu5Ac(a2-3)GalNAc(b1-4)GlcNAc
# Procedure, shortened: as §1
# [18] = biological target: Neu5Ac(a2-3)[GalNAc(b1-4)]Gal(b1-4)Glc
# Procedure, shortened: as §1
# [19] = biological target: Neu5Ac(a2-3)[GalNAc(b1-4)]Gal(b1-4)GlcNAc
# Procedure, shortened: as §1
# [20] = biological target: Neu5Ac(a2-3)[GalNAc(b1-4)]Gal(b1-4)GlcNAc(b1-3)GalNAc
# Procedure, shortened: as §1
# [21] = biological target: Neu5Ac(a2-3)[Neu5Ac(a2-6)]GalNAc
# Procedure, shortened: as §1
# Neu5Ac(a2-6)Gal = biological target: Neu5Ac(a2-6)Gal
# Procedure, shortened: as §1
# [22] = biological target: Neu5Ac(a2-6)Gal(b1-3)GlcNAc(b1-3)[Gal(b1-4)GlcNAc(b1-6)]Gal(b1-4)Glc
# Procedure, shortened: as §1
# Neu5Ac(a2-6)Gal(b1-4)Glc = biological target: Neu5Ac(a2-6)Gal(b1-4)Glc
# Procedure, shortened: as §1
# [23] = biological target: Neu5Ac(a2-6)Gal(b1-4)GlcNAc
# Procedure, shortened: as §1
# [24] = biological target: Neu5Ac(a2-6)Gal(b1-4)GlcNAc(b1-2)Man
# Procedure, shortened: as §1
# [25] = biological target: Neu5Ac(a2-6)Gal(b1-4)GlcNAc(b1-2)Man(a1-3)Man(b1-4)GlcNAc(b1-4)GlcNAc
# Procedure, shortened: as §1
# [26] = biological target: Neu5Ac(a2-6)Gal(b1-4)GlcNAc(b1-2)Man(a1-3)[Gal(b1-4)GlcNAc(b1-2)Man(a1-6)]Man(b1-4)GlcNAc(b1-4)GlcNAc
# Procedure, shortened: as §1
# [27] = biological target: Neu5Ac(a2-6)Gal(b1-4)GlcNAc(b1-2)Man(a1-3)[GlcNAc(b1-2)Man(a1-6)]Man(b1-4)GlcNAc(b1-4)GlcNAc
# Procedure, shortened: as §1
# [28] = biological target: Neu5Ac(a2-6)Gal(b1-4)GlcNAc(b1-2)Man(a1-3)[GlcNAc(b1-4)][Neu5Ac(a2-6)Gal(b1-4)GlcNAc(b1-2)Man(a1-6)]Man(b1-4)GlcNAc(b1-4)GlcNAc
# Procedure, shortened: as §1
# [29] = biological target: Neu5Ac(a2-6)Gal(b1-4)GlcNAc(b1-2)Man(a1-3)[Man(a1-6)]Man(b1-4)GlcNAc(b1-4)GlcNAc
# Procedure, shortened: as §1
# [30] = biological target: Neu5Ac(a2-6)Gal(b1-4)GlcNAc(b1-2)Man(a1-3)[Neu5Ac(a2-3)Gal(b1-4)GlcNAc(b1-2)Man(a1-6)]Man(b1-4)GlcNAc(b1-4)GlcNAc
# Procedure, shortened: as §1
# [31] = biological target: Neu5Ac(a2-6)Gal(b1-4)GlcNAc(b1-2)Man(a1-3)[Neu5Ac(a2-6)Gal(b1-4)GlcNAc(b1-2)Man(a1-6)]Man(b1-4)GlcNAc(b1-4)GlcNAc
# Procedure, shortened: as §1
# [32] = biological target: Neu5Ac(a2-6)Gal(b1-4)GlcNAc(b1-2)Man(a1-3)[Neu5Ac(a2-6)Gal(b1-4)GlcNAc(b1-2)Man(a1-6)]Man(b1-4)GlcNAc(b1-4)[Fuc(a1-6)]GlcNAc
# Procedure, shortened: as §1
# [33] = biological target: Neu5Ac(a2-6)Gal(b1-4)GlcNAc(b1-2)Man(a1-6)Man(b1-4)GlcNAc(b1-4)GlcNAc
# Procedure, shortened: as §1
# [34] = biological target: Neu5Ac(a2-6)Gal(b1-4)GlcNAc(b1-2)Man(a1-6)[Gal(b1-4)GlcNAc(b1-2)Man(a1-3)]Man(b1-4)GlcNAc(b1-4)GlcNAc
# Procedure, shortened: as §1
# [35] = biological target: Neu5Ac(a2-6)Gal(b1-4)GlcNAc(b1-2)Man(a1-6)[GlcNAc(b1-2)Man(a1-3)]Man(b1-4)GlcNAc(b1-4)GlcNAc
# Procedure, shortened: as §1
# [36] = biological target: Neu5Ac(a2-6)Gal(b1-4)GlcNAc(b1-2)Man(a1-6)[Man(a1-3)]Man(b1-4)GlcNAc(b1-4)GlcNAc
# Procedure, shortened: as §1
# [37] = biological target: Neu5Ac(a2-6)Gal(b1-4)GlcNAc(b1-2)[Neu5Ac(a2-6)Gal(b1-4)GlcNAc(b1-4)]Man(a1-3)[GlcNAc(b1-4)][Neu5Ac(a2-6)Gal(b1-4)GlcNAc(b1-2)[Neu5Ac(a2-6)Gal(b1-4)GlcNAc(b1-6)]Man(a1-6)]Man(b1-4)GlcNAc(b1-4)GlcNAc
# Procedure, shortened: as §1
# [38] = biological target: Neu5Ac(a2-6)Gal(b1-4)GlcNAc(b1-2)[Neu5Ac(a2-6)Gal(b1-4)GlcNAc(b1-4)]Man(a1-3)[GlcNAc(b1-4)][Neu5Ac(a2-6)Gal(b1-4)GlcNAc(b1-4)Man(a1-6)]Man(b1-4)GlcNAc(b1-4)GlcNAc
# Procedure, shortened: as §1
# [39] = biological target: Neu5Ac(a2-6)Gal(b1-4)GlcNAc(b1-2)[Neu5Ac(a2-6)Gal(b1-4)GlcNAc(b1-6)]Man(a1-6)[Neu5Ac(a2-6)Gal(b1-4)GlcNAc(b1-2)Man(a1-3)][GlcNAc(b1-4)]Man(b1-4)GlcNAc(b1-4)GlcNAc
# Procedure, shortened: as §1
# [40] = biological target: Neu5Ac(a2-6)Gal(b1-4)GlcNAc(b1-3)Gal(b1-3)GlcNAc
# Procedure, shortened: as §1
# [41] = biological target: Neu5Ac(a2-6)Gal(b1-4)GlcNAc(b1-3)Gal(b1-4)GlcNAc
# Procedure, shortened: as §1
# [42] = biological target: Neu5Ac(a2-6)Gal(b1-4)GlcNAc(b1-3)Gal(b1-4)GlcNAc(b1-2)Man(a1-3)[Neu5Ac(a2-6)Gal(b1-4)GlcNAc(b1-3)Gal(b1-4)GlcNAc(b1-2)Man(a1-6)]GalNAc
# Procedure, shortened: as §1
binder,measurement,setting,value
B1,glycan array binding signal (z-score),[1],-0.347
same,glycan array binding signal (z-score),[2],-0.413
same,glycan array binding signal (z-score),[3],-0.262
same,glycan array binding signal (z-score),[4],-0.387
same,glycan array binding signal (z-score),[5],-0.362
same,glycan array binding signal (z-score),[6],-0.393
same,glycan array binding signal (z-score),[7],-0.404
same,glycan array binding signal (z-score),[8],-0.394
same,glycan array binding signal (z-score),[9],-0.295
same,glycan array binding signal (z-score),[10],-0.454
same,glycan array binding signal (z-score),[11],-0.202
same,glycan array binding signal (z-score),[12],8.35
same,glycan array binding signal (z-score),[13],0.04
same,glycan array binding signal (z-score),[14],-0.416
same,glycan array binding signal (z-score),[15],-0.324
same,glycan array binding signal (z-score),[16],-0.398
same,glycan array binding signal (z-score),Neu5Ac(a2-3)GalNAc,-0.375
same,glycan array binding signal (z-score),[17],-0.361
same,glycan array binding signal (z-score),[18],0.004
same,glycan array binding signal (z-score),[19],-0.138
same,glycan array binding signal (z-score),[20],0.67
same,glycan array binding signal (z-score),[21],-0.398
same,glycan array binding signal (z-score),Neu5Ac(a2-6)Gal,-0.326
same,glycan array binding signal (z-score),[22],-0.251
same,glycan array binding signal (z-score),Neu5Ac(a2-6)Gal(b1-4)Glc,-0.356
same,glycan array binding signal (z-score),[23],-0.38
same,glycan array binding signal (z-score),[24],-0.397
same,glycan array binding signal (z-score),[25],-0.314
same,glycan array binding signal (z-score),[26],2.03
same,glycan array binding signal (z-score),[27],0.059
same,glycan array binding signal (z-score),[28],-0.44
same,glycan array binding signal (z-score),[29],-0.343
same,glycan array binding signal (z-score),[30],-0.344
same,glycan array binding signal (z-score),[31],-0.325
same,glycan array binding signal (z-score),[32],-0.338
same,glycan array binding signal (z-score),[33],-0.173
same,glycan array binding signal (z-score),[34],0.72
same,glycan array binding signal (z-score),[35],-0.297
same,glycan array binding signal (z-score),[36],-0.337
same,glycan array binding signal (z-score),[37],-0.373
same,glycan array binding signal (z-score),[38],-0.371
same,glycan array binding signal (z-score),[39],-0.374
same,glycan array binding signal (z-score),[40],-0.368
same,glycan array binding signal (z-score),[41],-0.486
same,glycan array binding signal (z-score),[42],2.12
